Data reported in a compilation of properties of binary mixtures (doi:10.1007/s10953-022-01154-2).
Some of these densities may be calculated back from excess volumes.

Assay: xn = mol fraction of the nth substance listed
Settings: 101.3 kPa

CC[n+]1ccn(C)c1.N#C[S-] + CC1COC(=O)O1
mass density [kg/m3]
Settings	x1 = 0.0989	x1 = 0.2045	x1 = 0.2984	x1 = 0.4	x1 = 0.499	x1 = 0.599	x1 = 0.7045	x1 = 0.796	x1 = 0.8942	x1 = 1
293.15 K	1195	–	–	1164	1155	1146	1138	1130	1122	1116
298.15 K	–	1180	1170	–	1151	–	–	1127	1119	1113
303.15 K	1185	1175	1166	1156	1147	1139	1131	1124	1116	1109
308.15 K	1180	1171	1161	1152	1143	1135	1127	1120	1113	1106
313.15 K	1175	1166	1157	1148	1140	1132	–	1117	1109	1103
318.15 K	1171	–	–	1144	1136	–	–	1114	–	1100
323.15 K	1166	–	1148	1140	–	–	1117	1110	1103	1096
328.15 K	1161	1152	1144	1135	–	–	1113	–	–	1093
333.15 K	–	1148	1139	1131	1124	1117	1110	1104	1097	1090
338.18 K	1151	1143	–	1127	1120	1113	1107	1100	1093	1087
343.15 K	1146	1138	1131	–	–	1110	1103	1097	1090	–

CC1COC(=O)O1 (centres undefined) + CC[n+]1ccn(C)c1.N#C[S-]
x2 = 0
Settings	mass density [kg/m3]
298.15 K	1200
303.15 K	1194
313.15 K	1184
318.15 K	1179
323.15 K	1173
328.15 K	1168
338.18 K	1158
343.15 K	1152
